Source: PubChem BioAssay AID504845 (National Center for Advancing Translational Sciences (NCATS), 2011)
Hit rate of the full screen: of about 390,000 compounds, about 150 (0.038%) were called active. About 3% were inconclusive and are not listed. The call rests on the fitted dose curve; in most records, active means well fitted inhibition curve with a large enough effect; inconclusive means small, poorly fitted or top-dose-only effect; inactive means no such curve, though single readings can be large or run the other way. The list shows a part of the results, in another mix than the full data. Some structures have more than one record in an assay (separate samples or runs), and their calls can disagree.

Biological target: Regulator of G-protein signaling 4 (Homo sapiens) (UniProt P49798)
Test: Inhibitors of Regulator of G Protein Signaling (RGS) 4: qHTS; further: nearly all actives have a fitted effect of over 75% in size
Settings: Transcreener GDP fluorescence polarization, RGS4-accelerated GTP hydrolysis; series mostly up to 114 µM; activity change, negative = inhibition: at the top concentration
Source text: G-protein-coupled receptors (GPCRs) are well-established targets for drug discovery and development. Members of the "regulator of G-protein signaling" (RGS)-protein superfamily have recently emerged as critical modulators of specific GPCR signaling pathways. […] Combining specific RGS domain inhibitors with existing GPCR agonists should potentiate cellular responses and could also increase the specificity of action of existing therapeutics. Small molecule modulators of RGS domain activity should also have clinical utility in inhibiting or potentiating the actions of endogenous GPCR agonists. In particular, the diversity of RGS proteins with highly localized and dynamically regulated distributions in the human brain makes this family of proteins attractive targets for pharmacotherapy of central nervous system (CNS) disorders such as Parkinson's disease, schizophrenia, and anxiety.
This assay was used to screen the NIH Molecular Libraries Small Molecule Repository (MLSMR) in order to identify a small molecule that inhibits RGS4.
NIH Chemical Genomics Center [NCGC]
NIH Molecular Libraries Probe Centers Network [MLPCN]
Assay Submitter (PI): David Siderovski, University of North Carolina Chapel Hill (School of Medicine)
Two microliters of 500nM (2x working concentration) is dispensed into black medium-binding solid-bottom Kalypsys plates. Then with the Kalypsys pintool 23nl of control and compounds are transferred; the control compound is […] CCG-4986 (working concentration). After a 10 minute incubation at room temperature 2ul of antibody is added with the Kalypsys dispenser; (-)RGS4/Transcreener GDP solution in columns 3 and 4 which consisted of 10nM (2x working concentration) Alexa633, 20uM GTP, and 20 ug/ml GDP antibody and (+)RGS4/Transcreener GDP solution in columns 1,2, and 5 to 48 which consists of 900nM RGS4 (2x working concentration), 10nM Alexa633, 20 ug/ml GDP antibody. The plate is centrifuged at 1000 RPM for 15 seconds to remove any possible bubbles and then incubated for 5 minutes at ambient room temperature. An initial fluorescent polarization read (620 nm/688 nm) is performed on the Envision before the plate is incubated for 90 minutes at 30 deg C at a relative humidity of 80%. The plate is once more centrifuged at 1000 RPM for 15 seconds and another Envision fluorescent polarization (620 nm/688 nm) read is carried out.
On the % scale 0 is the no-effect control and ±100 the full control effect; potency means the concentration at half of the fitted maximal effect.

UniProt P49798, sequence (P49798 whole entry, looked up): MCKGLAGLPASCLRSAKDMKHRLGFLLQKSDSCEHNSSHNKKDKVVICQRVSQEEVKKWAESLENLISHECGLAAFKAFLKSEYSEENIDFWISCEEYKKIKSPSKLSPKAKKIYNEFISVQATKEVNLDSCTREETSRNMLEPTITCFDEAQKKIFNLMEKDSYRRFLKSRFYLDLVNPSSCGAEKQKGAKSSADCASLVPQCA

| Structure (SMILES) | activity change, negative = inhibition | Potency |
| --- | --- | --- |
| C[N+]1(C)CCN(c2ccccc2)CC1 | inactive: -15.2% |  |
| CCCN1CCC[C@H](c2cccc(O)c2)C1 |  | inactive |
| N[C@@]1(C(=O)O)CC[C@@H](C(=O)O)C1 |  | inactive |
| O=C1CC2(CCCC2)CC(=O)N1CCCCN1CCN(c2ncccn2)CC1 |  | inactive |
| Clc1cc(I)cc(Cl)c1NC1=NCCN1 |  | inactive |
| Cn1c[n+](C)cc1C(O)c1ccccc1 (stereo not given) | inactive: -0.598% |  |
| C[C@H](CCC(=O)O)[C@H]1CC[C@H]2[C@@H]3[C@H](O)C[C@@H]4C[C@H](O)CC[C@]4(C)[C@H]3CC[C@]12C | inactive: 17.9% |  |
| Cc1ccc(C[N+](C)(C)C)o1 | inactive: -198% [at 56.9 µM] |  |
| Cc1nccc2c1[nH]c1ccccc12 |  | inactive |
| CN1CC[C@@]2(C)c3cc(O)ccc3N(C)C12 (stereo not given in full) |  | active: 21.2 µM |
| COc1ccc(OCC(=O)N2CCN(Cc3ccc(SC)cc3)CC2)cc1 | inactive: 14% |  |
| CN(N=O)c1cc(O)ccc1O |  | active: 23.8 µM |
| NC(Cc1cc(O)c(O)cc1O)C(=O)O (stereo not given) |  | active: 2.99 µM |
| CC(=O)OC1N=C(c2ccccc2)c2cc(Br)ccc2NC1=O (stereo not given) | inactive: 56.5% |  |
| O=C(O)CC1OCC=C2CN3CCC45C6=CC(=O)C(=O)C([N+](=O)[O-])=C6NC4C1C2CC35 (stereo not given) | inactive: -23.1% [at 56.9 µM] |  |
| O=c1oc(Cl)c(Cl)c2ccccc12 | inactive: -20.3% |  |
| C[C@]12N[C@H](Cc3ccccc31)c1ccccc12 |  | inactive |
| CN1CCCC1c1cccnc1 (stereo not given) |  | inactive |
| CC(C)C[C@H]1C(=O)N2CCCC2[C@]2(O)O[C@](NC(=O)[C@@H]3C=C4c5cccc6[nH]c(Br)c(c56)C[C@H]4N(C)C3)(C(C)C)C(=O)N12 (stereo not given in full) | inactive: 490% [at 56.9 µM] |  |
| Oc1ccccc1O | inactive: 24.6% |  |
| COc1ccc(Cc2nccc3cc(OC)c(OC)cc23)cc1OC | inactive: 10.6% [at 56.9 µM] |  |
| CCN(CC)C(=O)c1ccc(NC(=O)c2ccc(-c3nn(C)c(=O)c4ccccc34)cc2)cc1 | inactive: 2.68% |  |
| CNCCc1c[nH]c2ccc(O)cc12 | inactive: -13.3% |  |
| CC[C@@H]1C(=O)OC[C@@H]1Cc1cncn1C | inactive: 7.74% |  |
| Fc1ccc(C(OCCN2CCN(CCCc3ccccc3)CC2)c2ccc(F)cc2)cc1 |  | inactive |
| CC(C)[C@@]1(NC(=O)[C@H]2CC3c4cccc5[nH]cc(c45)C[C@H]3N(C)C2)O[C@@]2(O)C3CCCN3C(=O)[C@@H](Cc3ccccc3)N2C1=O (stereo not given in full) | inactive: 250% [at 56.9 µM] |  |
| CC(C)(C)NCC(O)c1cc(Cl)c(N)c(Cl)c1 (stereo not given) | inactive: -0.783% |  |
| COC(=O)C1=CCCN(C)C1 |  | inactive |

| Structure (SMILES) | activity change, negative = inhibition | Potency |
| --- | --- | --- |
| CCN1C[C@@]2(COC)C3[C@@H](OC)[C@H]4[C@@H]1[C@@]3(C1C[C@@]3(O)[C@H](OC(=O)c5ccccc5)C1[C@]4(OC(C)=O)[C@@H](O)[C@H]3OC)[C@@H](OC)C[C@H]2O (stereo not given in full) | inactive: 1.74% |  |
| CC(C)[C@]1(O)[C@@H](OC(=O)c2ccc[nH]2)[C@@]2(O)[C@@]3(C)C[C@]4(O)O[C@@]5([C@H](O)[C@@H](C)CC[C@]35O)[C@@]2(O)C41C | inactive: 10.3% |  |
| CN(C)C1C(=O)C(C(N)=O)=C(O)C2(O)C(=O)C3=C(O)c4c(O)cccc4C(C)(O)C3C(O)C12 (stereo not given) | inactive: 22.4% |  |
| COc1ccc2c(c1)/C(=C/c1cnc[nH]1)C(=O)N2 | inactive: -2.96% |  |
| NCCc1c[nH]c2ccc(O)cc12 | inactive: -8.09% |  |
| COc1ccc2c3c1OC1C(=O)CC[C@@]4(O)[C@@H](C2)N(CC2CC2)CC[C@]314 (stereo not given in full) | inactive: 13.9% |  |
| C=C1N2CCC(CC2)C1(O)c1ccc(C)c(C)c1 (stereo not given) | inactive: 63.3% |  |
| CNCC[C@H](Oc1ccc(C(F)(F)F)cc1)c1ccccc1 | inactive: -7.15% |  |
| CCCN1CCc2cc(O)cc3c2[C@H]1Cc1ccc(O)c(O)c1-3 | inactive: -15.8% |  |
| Oc1ccc2c3c1OC1c4[nH]c5ccccc5c4C[C@@]4(O)C(C2)N(CC2CC2)CC[C@]314 (stereo not given in full) | inactive: -2.18% |  |
| C[C@@]12N[C@@H](Cc3ccccc31)c1ccccc12 |  | inactive |
| Cc1nnc2ccc(-c3cccc(C(F)(F)F)c3)nn12 | inactive: 9.65% |  |
| CCC1C(=O)OCC1Cc1cncn1C (stereo not given) |  | inactive |
| CCCN(CCC)[C@@H]1CCc2c(OC)cccc2[C@@H]1C | inactive: 250% [at 56.9 µM] |  |
| C=CCN1C[C@@H](C)N(C(c2ccc(C(=O)N(CC)CC)cc2)c2cccc(OC)c2)C[C@@H]1C (stereo not given in full) | inactive: -4.01% |  |
| CN1CC[C@@]2(C)c3cc(O)ccc3N(C)[C@@H]12 |  | inactive |
| CC(C)C[C@H](NP(=O)(O)O[C@@H]1O[C@@H](C)[C@H](O)[C@@H](O)[C@H]1O)C(=O)N[C@@H](Cc1c[nH]c2ccccc12)C(=O)O | inactive: -13.4% |  |
| C[N+]1(C)CCC(OC(=O)C(c2ccccc2)c2ccccc2)CC1 | inactive: 0.174% |  |
| Cc1c2ccncc2c(C)c2c1[nH]c1ccccc12 |  | inactive |
| OCCN1CCN(CCCN2c3ccccc3Sc3ccc(C(F)(F)F)cc32)CC1 |  | inactive |
| C[N+]1(C)[C@@H]2CC[C@H]1CC(OC(=O)C(CO)c1ccccc1)C2 (stereo not given in full) | inactive: -0.783% |  |
| CCCN1CCC[C@@H](c2cccc(O)c2)C1 | inactive: 13.6% |  |
| Cc1ccc(S(=O)(=O)N[C@@H](CCCCN)C(=O)CCl)cc1 | inactive: -37.5% |  |
| C=C(C)[C@@H]1CC[C@]2(C(=O)O)CC[C@]3(C)[C@H](CC[C@@H]4[C@@]5(C)CC[C@H](O)C(C)(C)[C@@H]5CC[C@]43C)[C@@H]12 | inactive: -16.1% |  |
| CCNC(=O)[C@H]1O[C@@H](n2cnc3c(N)ncnc32)[C@H](O)[C@@H]1O |  | inactive |
| O=C(/C=C\c1ccc(Cl)cc1)N[C@@]12CCC(=O)[C@@H]3Oc4c(O)ccc5c4[C@@]31CCN(CC1CC1)[C@@H]2C5 | inactive: 102% [at 56.9 µM] |  |
| CC[C@H](Oc1ccc(Cl)cc1)C(=O)OC1C[C@H]2CC[C@@H](C1)N2C (stereo not given in full) | inactive: 176% [at 56.9 µM] |  |
